Reference: the supplement of paper PMC4967469
The IC50 comes from the fitted curve, where viability falls to half of the control; a limit (>, <) means that the fit lies beyond the doses tested. AUC, from the same fit, is the share of area under the viability curve across the 256-fold dose range; the more sensitive the line, the further below 1. Any top dose called inferred comes from the curve model; the source does not state it.

Compound: C=CC(=O)Nc1cccc(Nc2nc(NC3CCC(N(C)C)CC3)nc3c2ncn3C(C)C)c1 [WZ3105]
Assay: Viability of human cancer cell lines after 72 h of drug (GDSC screen)
Settings: top dose inferred
Method: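 Human cancer cell lines in 384-well plates, medium with 10% serum, drug for 72 h over a 256-fold dose range (nine 2-fold or five 4-fold steps up to the top dose). Adherent lines were fixed and stained with the nucleic acid dye Syto60, suspension lines read with resazurin; signal relative to control wells, capped at 0 and 100%. One two-parameter sigmoid per drug and line, fitted in a mixed model over all curves with the slope shared within a line.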

Row | Cell Line | AUC | IC50 [nM]
1 | SKN-3 (head and neck, adherent, top dose 1.28 µM) | 0.845 | 1190
2 | SLVL (B-cell lymphoma, suspension, top dose 1.28 µM) | 0.461 | 62.2
3 | SN12C (kidney, adherent, top dose 1.28 µM) | 0.96 | > 1280
4 | SNB75 (glioma, adherent, top dose 1.28 µM) | 0.762 | 675
5 | SNG-M (endometrium, adherent, top dose 1.28 µM) | 0.795 | 580
6 | SNU-61 (large intestine, adherent, top dose 1.28 µM) | 0.782 | 721
7 | SNU-81 (large intestine, adherent, top dose 1.28 µM) | 0.737 | 488
8 | SNU-175 (large intestine, suspension, top dose 1.28 µM) | 0.63 | 179
9 | SNU-182 (liver, adherent, top dose 1.28 µM) | 0.795 | 624
10 | SNU-387 (liver, adherent, top dose 1.28 µM) | 0.823 | 900
11 | SNU-398 (liver, adherent, top dose 1.28 µM) | 0.757 | 456
12 | SNU-407 (large intestine, adherent, top dose 1.28 µM) | 0.912 | > 1280
13 | SNU-423 (liver, adherent, top dose 1.28 µM) | 0.824 | 940
14 | SNU-449 (liver, adherent, top dose 1.28 µM) | 0.98 | > 1280
15 | SNU-475 (liver, adherent, top dose 1.28 µM) | 0.935 | > 1280
16 | SNU-1040 (large intestine, adherent, top dose 1.28 µM) | 0.593 | 157
17 | SNU-C1 (large intestine, suspension, top dose 10.24 µM) | 0.865 | > 10200
18 | SNU-C2B (large intestine, adherent, top dose 10.24 µM) | 0.477 | 543
19 | SNU-C5 (large intestine, adherent, top dose 1.28 µM) | 0.919 | > 1280
20 | SR (lymphoid neoplasm, suspension, top dose 1.28 µM) | 0.551 | 108

Row | Cell Line | AUC | IC50 [nM]
21 | ST486 (Burkitt lymphoma, suspension, top dose 1.28 µM) | 0.499 | 79.5
22 | SU8686 (pancreas, adherent, top dose 1.28 µM) | 0.765 | 524
23 | SU-DHL-1 (anaplastic large cell lymphoma, suspension, top dose 1.28 µM) | 0.627 | 162
24 | SU-DHL-4 (B-cell lymphoma, suspension, top dose 1.28 µM) | 0.607 | 145
25 | SU-DHL-5 (B-cell lymphoma, suspension, top dose 1.28 µM) | 0.593 | 135
26 | SU-DHL-6 (B-cell lymphoma, suspension, top dose 1.28 µM) | 0.445 | 58.7
27 | SU-DHL-8 (B-cell lymphoma, suspension, top dose 1.28 µM) | 0.574 | 126
28 | SU-DHL-10 (B-cell lymphoma, suspension, top dose 1.28 µM) | 0.607 | 145
29 | SU-DHL-16 (B-cell lymphoma, suspension, top dose 1.28 µM) | 0.46 | 64.1
30 | SUIT-2 (pancreas, adherent, top dose 1.28 µM) | 0.986 | > 1280
31 | SUP-B15 (lymphoblastic leukaemia, suspension, top dose 1.28 µM) | 0.601 | 150
32 | SUP-HD1 (Hodgkin lymphoma, suspension, top dose 1.28 µM) | 0.643 | 195
33 | SUP-M2 (anaplastic large cell lymphoma, suspension, top dose 1.28 µM) | 0.564 | 114
34 | SUP-T1 (T-cell lymphoblastic leukaemia, suspension, top dose 10.24 µM) | 0.203 | 94.3
35 | SW13 (adrenal gland, adherent, top dose 1.28 µM) | 0.954 | > 1280
36 | SW48 (large intestine, adherent, top dose 10.24 µM) | 0.768 | 3830
37 | SW156 (kidney, adherent, top dose 1.28 µM) | 0.969 | > 1280
38 | SW620 (large intestine, adherent, top dose 10.24 µM) | 0.345 | 252
39 | SW626 (ovary, adherent, top dose 1.28 µM) | 0.775 | 604
40 | SW684 (fibrosarcoma, adherent, top dose 1.28 µM) | 0.977 | > 1280

Row | Cell Line | AUC | IC50 [nM]
41 | SW756 (cervix, adherent, top dose 1.28 µM) | 0.923 | > 1280
42 | SW780 (bladder, adherent, top dose 1.28 µM) | 0.936 | > 1280
43 | SW837 (large intestine, adherent, top dose 1.28 µM) | 0.914 | > 1280
44 | SW872 (soft tissue, adherent, top dose 1.28 µM) | 0.989 | > 1280
45 | SW900 (lung squamous cell carcinoma, adherent, top dose 1.28 µM) | 0.916 | > 1280
46 | SW948 (large intestine, adherent, top dose 10.24 µM) | 0.796 | 7640
47 | SW954 (urogenital system, adherent, top dose 1.28 µM) | 0.869 | 1200
48 | SW962 (urogenital system, adherent, top dose 1.28 µM) | 0.939 | > 1280
49 | SW982 (soft tissue, adherent, top dose 1.28 µM) | 0.885 | > 1280
50 | SW1088 (glioma, adherent, top dose 1.28 µM) | 0.981 | > 1280
51 | SW1116 (large intestine, adherent, top dose 1.28 µM) | 0.983 | > 1280
52 | SW1271 (small cell lung carcinoma, adherent, top dose 1.28 µM) | 0.766 | 544
53 | SW1417 (large intestine, adherent, top dose 1.28 µM) | 0.912 | > 1280
54 | SW1463 (large intestine, adherent, top dose 1.28 µM) | 0.94 | > 1280
55 | SW1573 (lung adenocarcinoma, adherent, top dose 1.28 µM) | 0.872 | > 1280
56 | SW1710 (bladder, adherent, top dose 1.28 µM) | 0.977 | > 1280
57 | SW1783 (glioma, adherent, top dose 1.28 µM) | 0.989 | > 1280
58 | SW1990 (pancreas, adherent, top dose 1.28 µM) | 0.941 | > 1280
59 | Saos-2 (osteosarcoma, adherent, top dose 1.28 µM) | 0.923 | > 1280
